Enrichment score data for 19 molecules are collected here from the supplement of paper PMC10369915.

Among the targets are SHP2 C-SH2 domain E139D; SHP2 N-SH2 domain L43F; SHP2 N-SH2 domain T42A; SHP2 N-SH2 domain T52S.
What all share (experiment): enrichment score (SH2-bound / input frequency) (ratio); bacterial display of known human phosphotyrosine sites (pTyr-Var adds point mutants) read by sequencing; higher = stronger binding; tyrosines were phosphorylated by kinases first
Common to all, as to conditions: peptide library: pTyr-Var

Experiment [1] has as its target SHP2 C-SH2 domain wild-type.
Experiment [2] concerns the target SHP2 N-SH2 domain wild-type.

The list shows a part of the results. No stated cut-off is given here; in the data, active = 3.2 or more and inactive = the rest. Only a few entries rise above the background.
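Further: displayed peptides selected on beads carrying the immobilized SH2 domain, with library peptides lacking any tyrosine serving as negative controls.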

As for TTPGPYRSIYF [MPG_Y71], the enrichment score in the experiment with SHP2 C-SH2 domain E139D was inactive: 0.81; in experiment [1], inactive: 2.24; with SHP2 N-SH2 domain L43F, active: 3.52; with SHP2 N-SH2 domain T42A, active: 3.35; with SHP2 N-SH2 domain T52S, active: 4.4; in experiment [2], inactive: 1.04.
For the molecule ADGLEYPRTGL [MMUT_Y287_S288P], the enrichment score with SHP2 C-SH2 domain E139D was inactive: 0.658; in experiment [1], inactive: 0.782; with SHP2 N-SH2 domain L43F it was inactive: 0.736; in the experiment with SHP2 N-SH2 domain T42A it was inactive: 0.559; in the experiment with SHP2 N-SH2 domain T52S, inactive: 0.59; in experiment [2] it was inactive: 0.685.
Consider HLWRIYFDITD [MMP27_Y307_YF], for which the enrichment score with SHP2 C-SH2 domain E139D is inactive: 1.3; in experiment [1], inactive: 1.74; with SHP2 N-SH2 domain L43F, inactive: 1.23; with SHP2 N-SH2 domain T42A it was inactive: 1.28; with SHP2 N-SH2 domain T52S, inactive: 1.61; in experiment [2], inactive: 1.92.
Turning to TEQDPYNNIVH [MMUT_Y364_R369H], the enrichment score with SHP2 C-SH2 domain E139D was inactive: 0.509; in experiment [1], inactive: 0.552; with SHP2 N-SH2 domain L43F, inactive: 0.473; in the experiment with SHP2 N-SH2 domain T42A it was inactive: 0.408; in the experiment with SHP2 N-SH2 domain T52S it was inactive: 0.482; in experiment [2] it was inactive: 0.648.
For FLELNYKEDEF [MME_Y502_YF], the enrichment score with SHP2 C-SH2 domain E139D was inactive: 0.983; in experiment [1], inactive: 1.2; in the experiment with SHP2 N-SH2 domain L43F, inactive: 1.22; in the experiment with SHP2 N-SH2 domain T42A, inactive: 0.853; with SHP2 N-SH2 domain T52S, inactive: 0.951; in experiment [2], inactive: 0.909.
TEQDPYNNIVC [MMUT_Y364_R369C]: the enrichment score was inactive: 0.693 with SHP2 C-SH2 domain E139D; inactive: 0.616 in experiment [1]; inactive: 0.565 with SHP2 N-SH2 domain L43F; inactive: 0.638 with SHP2 N-SH2 domain T42A; inactive: 0.61 with SHP2 N-SH2 domain T52S; inactive: 0.655 in experiment [2].
Regarding FLENFYDLEKD [MMP3_Y42_K45E_YF], the enrichment score with SHP2 C-SH2 domain E139D was inactive: 1.52; in experiment [1], inactive: 1.18; with SHP2 N-SH2 domain L43F, inactive: 1.37; with SHP2 N-SH2 domain T42A, inactive: 1.03; with SHP2 N-SH2 domain T52S, inactive: 1.37; in experiment [2], inactive: 1.43.
EVVGRYSVHYA [MLH1_Y183_N187Y]: the enrichment score was inactive: 0.877 with SHP2 C-SH2 domain E139D; inactive: 1 in experiment [1]; inactive: 0.962 with SHP2 N-SH2 domain L43F; inactive: 0.898 with SHP2 N-SH2 domain T42A; inactive: 1.01 with SHP2 N-SH2 domain T52S; inactive: 0.838 in experiment [2].
In the case of ATHRGYDSDNP [MMUT_Y146], the enrichment score with SHP2 C-SH2 domain E139D is inactive: 0.522; in experiment [1], inactive: 0.523; with SHP2 N-SH2 domain L43F, inactive: 0.497; with SHP2 N-SH2 domain T42A, inactive: 0.472; with SHP2 N-SH2 domain T52S, inactive: 0.477; in experiment [2], inactive: 0.583.
Consider KLNNEHLELNY [MME_Y497_Y497H], for which the enrichment score with SHP2 C-SH2 domain E139D was inactive: 0.776; in experiment [1], inactive: 0.694; with SHP2 N-SH2 domain L43F it was inactive: 0.747; in the experiment with SHP2 N-SH2 domain T42A, inactive: 0.655; with SHP2 N-SH2 domain T52S, inactive: 0.643; in experiment [2], inactive: 0.855.
For THPFLYLSLEI [MLH1_Y293], the enrichment score was inactive: 1.92 with SHP2 C-SH2 domain E139D; inactive: 2.54 in experiment [1]; inactive: 2.19 in the experiment with SHP2 N-SH2 domain L43F; inactive: 1.78 in the experiment with SHP2 N-SH2 domain T42A; inactive: 1.79 in the experiment with SHP2 N-SH2 domain T52S; inactive: 2.96 in experiment [2].
In the case of HLELNYKEDEY [MME_Y502_Y497H], the enrichment score in the experiment with SHP2 C-SH2 domain E139D was inactive: 0.836; in experiment [1], inactive: 0.841; with SHP2 N-SH2 domain L43F, inactive: 0.639; with SHP2 N-SH2 domain T42A, inactive: 0.662; with SHP2 N-SH2 domain T52S, inactive: 0.81; in experiment [2], inactive: 0.854.
TEIGQYGNGLK [MORC2_Y100_Q96E]: the enrichment score was inactive: 0.772 with SHP2 C-SH2 domain E139D; inactive: 0.735 in experiment [1]; inactive: 0.64 in the experiment with SHP2 N-SH2 domain L43F; inactive: 0.517 in the experiment with SHP2 N-SH2 domain T42A; inactive: 0.733 in the experiment with SHP2 N-SH2 domain T52S; inactive: 0.72 in experiment [2].
As for ATHRSYDSDNP [MMUT_Y146_G145S], the enrichment score in the experiment with SHP2 C-SH2 domain E139D is inactive: 0.563; in experiment [1], inactive: 0.483; with SHP2 N-SH2 domain L43F, inactive: 0.537; with SHP2 N-SH2 domain T42A, inactive: 0.5; in the experiment with SHP2 N-SH2 domain T52S it was inactive: 0.436; in experiment [2] it was inactive: 0.588.
Regarding ATHRGYDLDNP [MMUT_Y146_S148L], the enrichment score is inactive: 0.658 in the experiment with SHP2 C-SH2 domain E139D; inactive: 0.768 in experiment [1]; inactive: 0.741 with SHP2 N-SH2 domain L43F; inactive: 0.652 in the experiment with SHP2 N-SH2 domain T42A; inactive: 0.598 in the experiment with SHP2 N-SH2 domain T52S; inactive: 0.937 in experiment [2].
For GDPVQYNRTTD [MLPH_Y454], the enrichment score is inactive: 0.502 with SHP2 C-SH2 domain E139D; inactive: 0.576 in experiment [1]; inactive: 0.501 with SHP2 N-SH2 domain L43F; inactive: 0.485 in the experiment with SHP2 N-SH2 domain T42A; inactive: 0.563 with SHP2 N-SH2 domain T52S; inactive: 0.833 in experiment [2].
FEGHSYSACTT [MMP9_Y241_R239H]: the enrichment score in the experiment with SHP2 C-SH2 domain E139D was inactive: 0.875; in experiment [1], inactive: 0.959; with SHP2 N-SH2 domain L43F it was inactive: 0.674; in the experiment with SHP2 N-SH2 domain T42A it was inactive: 0.788; with SHP2 N-SH2 domain T52S it was inactive: 0.658; in experiment [2] it was inactive: 1.11.
Turning to HLWRIYYDITD [MMP27_Y307], the enrichment score with SHP2 C-SH2 domain E139D was inactive: 1.68; in experiment [1], inactive: 1.87; with SHP2 N-SH2 domain L43F it was inactive: 1.73; with SHP2 N-SH2 domain T42A, inactive: 1.66; in the experiment with SHP2 N-SH2 domain T52S, inactive: 1.83; in experiment [2] it was inactive: 2.03.
Regarding RDMNAYIRPSP [MMAA_Y207], the enrichment score is inactive: 0.82 with SHP2 C-SH2 domain E139D; inactive: 0.987 in experiment [1]; inactive: 0.907 in the experiment with SHP2 N-SH2 domain L43F; inactive: 0.721 in the experiment with SHP2 N-SH2 domain T42A; inactive: 0.755 with SHP2 N-SH2 domain T52S; inactive: 1.02 in experiment [2].
